Measured values: the supplement of paper PMC7826260
The other results are listed elsewhere or left out. Viral Rep nickase domains cut single-stranded DNA in vitro for 1 h at 37 °C with 3 µM enzyme; only the middle of the 90-letter strands is printed. The score is log2 (uncut reads / reads without enzyme); more negative means more cut, near 0 not cut, and no call is made. Counts are relative to all reads; values above 0 arise when much of the pool is cut.

Columns and labels:
Test in all cases: uncleaved DNA left, log2 of reads against the no-enzyme library (log2 ratio); higher = less cleavage (more negative = more Rep cleavage of the k-mer); sequences stand for … in CTCGTCCG…ACCGGAGA
[1] = system: T1, Rep nickase domain of Muscovy duck circovirus
T1 sequence (residues 1-111, tag not shown): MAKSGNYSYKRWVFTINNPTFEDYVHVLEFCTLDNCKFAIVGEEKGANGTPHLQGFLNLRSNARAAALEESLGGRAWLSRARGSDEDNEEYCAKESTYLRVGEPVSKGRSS
Experimental: (§1)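 A pool of 90-nt single-stranded DNAs with seven random bases just before the constant AC of the nick site (name = the seven bases) was cut by 3 µM recombinant His6-SUMO-tagged Rep nickase domain (300 nM DNA, 50 mM HEPES pH 8.0, 50 mM NaCl, 1 mM MnCl2, 1 h, 37 °C, three replicates). Uncut DNA was amplified and sequenced.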

[2] = system: T2, Rep nickase domain of banana bunchy top virus
T2 sequence (residues 1-94, tag not shown): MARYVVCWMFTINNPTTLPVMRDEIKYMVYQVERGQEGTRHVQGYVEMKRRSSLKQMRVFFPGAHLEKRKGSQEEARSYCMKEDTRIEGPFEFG
Experimental: as §1

[3] = system: T3, Rep nickase domain of cabbage leaf curl virus
T3 sequence (residues 1-116, tag not shown): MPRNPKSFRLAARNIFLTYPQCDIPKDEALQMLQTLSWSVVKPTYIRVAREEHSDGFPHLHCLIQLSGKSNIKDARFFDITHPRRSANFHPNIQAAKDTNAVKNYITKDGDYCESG
Experimental: as §1

[4] = system: T4, Rep nickase domain of chickpea chlorotic dwarf virus
T4 sequence (residues 1-124, tag not shown): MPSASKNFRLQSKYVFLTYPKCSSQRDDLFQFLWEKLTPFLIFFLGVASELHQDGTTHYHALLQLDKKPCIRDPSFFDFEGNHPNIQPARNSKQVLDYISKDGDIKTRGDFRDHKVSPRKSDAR
Experimental: as §1

[5] = system: T5, Rep nickase domain of faba bean necrotic yellows virus
T5 sequence (residues 1-98, tag not shown): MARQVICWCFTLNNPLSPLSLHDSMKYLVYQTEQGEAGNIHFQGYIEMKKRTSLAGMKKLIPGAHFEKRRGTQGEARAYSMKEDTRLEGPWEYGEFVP
Experimental: as §1

[6] = system: T6, Rep nickase domain of maize striate mosaic virus
T6 sequence (residues 1-117, tag not shown): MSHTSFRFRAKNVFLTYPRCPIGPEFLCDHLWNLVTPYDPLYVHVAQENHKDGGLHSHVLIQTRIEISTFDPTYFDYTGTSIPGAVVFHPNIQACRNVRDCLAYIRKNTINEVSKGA
Experimental: as §1

[7] = system: T7, Rep nickase domain of porcine circovirus 2
T7 sequence (residues 2-116, tag not shown): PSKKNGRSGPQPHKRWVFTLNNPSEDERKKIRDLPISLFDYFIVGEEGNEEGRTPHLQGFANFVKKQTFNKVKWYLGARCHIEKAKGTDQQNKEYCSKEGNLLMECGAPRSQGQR
Experimental: as §1

[8] = system: T8, Rep nickase domain of tomato golden mosaic virus
T8 sequence (residues 1-124, tag not shown): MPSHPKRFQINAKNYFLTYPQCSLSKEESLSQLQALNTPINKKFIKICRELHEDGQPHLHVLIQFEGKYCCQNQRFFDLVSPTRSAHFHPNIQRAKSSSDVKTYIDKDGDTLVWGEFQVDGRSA
Experimental: as §1

[9] = system: T9, Rep nickase domain of tomato yellow leaf curl virus
T9 sequence (residues 1-136, tag not shown): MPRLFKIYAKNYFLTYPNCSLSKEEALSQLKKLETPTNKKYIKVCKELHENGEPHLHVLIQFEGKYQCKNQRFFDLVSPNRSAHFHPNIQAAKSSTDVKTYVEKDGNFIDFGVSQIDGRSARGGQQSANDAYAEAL
Experimental: as §1

[10] = system: T10, Rep nickase domain of wheat dwarf virus
T10 sequence (residues 1-137, tag not shown): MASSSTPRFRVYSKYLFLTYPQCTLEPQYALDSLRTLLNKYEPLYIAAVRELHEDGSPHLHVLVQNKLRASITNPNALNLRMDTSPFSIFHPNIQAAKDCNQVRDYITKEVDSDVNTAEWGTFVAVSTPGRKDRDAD
Experimental: as §1

| Sequence | uncleaved DNA left (log2) [1] | uncleaved DNA left (log2) [2] | uncleaved DNA left (log2) [3] | uncleaved DNA left (log2) [4] | uncleaved DNA left (log2) [5] | uncleaved DNA left (log2) [6] | uncleaved DNA left (log2) [7] | uncleaved DNA left (log2) [8] | uncleaved DNA left (log2) [9] | uncleaved DNA left (log2) [10] |
| --- | --- | --- | --- | --- | --- | --- | --- | --- | --- | --- |
| AATTAGG | 0.17 | 0.0952 | 0.427 | 1.26 | 0.0815 | 0.943 | 0.208 | 0.164 | 0.0212 | 0.241 |
| GTGAGTG | 0.131 | 0.0319 | -0.00196 | 0.522 | 0.11 | 1.06 | 0.173 | 0.125 | 0.0213 | -0.0299 |
| AGAACTA | 0.0629 | -0.0142 | 0.198 | 0.199 | -0.0255 | 0.812 | -0.0272 | -0.0406 | 0.0196 | 0.116 |
| AGCCTTC | 0.118 | -0.0489 | 0.335 | 0.612 | 0.0618 | 0.118 | 0.0108 | 0.0109 | 0.00127 | 0.108 |
| CGCCAGG | -0.0645 | -0.166 | 0.0735 | 0.485 | -0.00882 | 0.319 | 0.096 | -0.135 | -0.113 | -0.077 |
| ATGGTCA | 0.0996 | 0.0111 | 0.0462 | -0.505 | -0.0702 | 0.0822 | -0.117 | 0.021 | -0.053 | -0.0199 |
| AACGTTT | -0.0581 | -0.125 | -0.418 | -2.49 | 0.0209 | -0.107 | -1.03 | -0.00425 | -0.0539 | -0.102 |
